Assay results taken from PubChem BioAssay AID686979 (National Center for Advancing Translational Sciences (NCATS), 2013).
The whole screen tested about 420,000 compounds, of which about 50,000 (12%) were called active. Inconclusive results, whose numbers are uncertain, are shown with a selection of clear calls. Calls follow the shape of the dose curve; as a rule, active = well fitted inhibition curve with a large enough effect; inconclusive = small, poorly fitted or top-dose-only effect; inactive = flat fitted curve, though single readings scatter. No potency is given beside an inconclusive call; the fits are too rough.

Experiment: qHTS for Inhibitors of human tyrosyl-DNA phosphodiesterase 1 (TDP1): qHTS in cells in presence of CPT; also: nearly all actives have a fitted effect of over 55% in size
Details: chicken DT40 Tdp1-/-;hTDP1 cells + 20 nM CPT, ATP luminescence, 48 h; activity change, negative = growth inhibition: at 46.2 µM (top of the series) unless noted
Method in brief: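 Chicken DT40 Tdp1-/- cells stably complemented with human TDP1 were seeded at 400 cells/well in medium containing 20 nM camptothecin, exposed to pin-transferred compounds, and grown at 37 °C for at least 48 hr. Viability was read as ATP luminescence.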
% is scaled to controls: 0 for no effect and ±100 for the full control effect; potency is read from the fitted curve at half-maximal effect; tags tell the direction and shape of the fitted curve.

Row | Compound | Potency | activity change, negative = growth inhibition
1 | COC(=O)c1ccc(COc2ccccc2/C=C(\C#N)C(=O)Nc2ccc(C)cc2)cc1 | active: 6.51 µM | –
2 | Cc1ccc(S(=O)(=O)Cc2ccc(C(=O)N3CCN(c4ccc(F)cc4)CC3)o2)cc1 | inconclusive [inhibitor, single point] | –
3 | CCOC(=O)c1cc([N+](=O)[O-])sc1NC(=O)c1ccc(S(=O)(=O)N2CC3(C)CC2CC(C)(C)C3)cc1 (configuration not stated) | active: 2.31 µM | –
4 | COc1ccc(OC)c(C(=O)Nc2c(O)ccc3ccccc23)c1 | active: 20.6 µM | –
5 | COC(=O)c1ccc(Nc2nnc(-c3ccc(C)c(S(=O)(=O)NCC4CCCO4)c3)c3ccccc23)cc1 (configuration not stated) | active: 23.1 µM | –
6 | COc1cc(OC)c(NC(=O)CCCn2nc(C)c3sc4ccccc4c3c2=O)cc1Cl | inconclusive [inhibitor, single point] | –
7 | Cc1cccc(OCc2n[nH]c(=S)n2-c2ccccc2)c1 | inactive | –
8 | CCCCCC(=O)Nc1sc(C)c(C)c1C#N | inconclusive [inhibitor, single point] | –
9 | O=c1cnc2cnc(N3CCNCC3)nc2n1C1CC1 | inactive | –
10 | C[C@]12CC[C@@H]3c4ccc(O)cc4CC[C@H]3[C@@H]1CCC2=O | inconclusive [inhibitor, single point] | –
11 | COc1ccc(C2=CC(=O)OC(C)(c3ccccc3)O2)cc1 (configuration not stated) | inconclusive [inhibitor, partial curve] | –
12 | Cc1nn(Cc2c(Cl)cccc2Cl)c(C)c1C(=O)NCc1ccc(C)n1C | inconclusive [inhibitor, single point] | –
13 | CCn1c(C)cc(C(=O)CSc2nnnn2C2CCCC2)c1C | inconclusive [inhibitor, single point] | –
14 | CCCCOC(=O)CSc1nnc(-c2ccccc2)o1 | inactive | –
15 | CCC(C)C(=O)NCCc1ccc(S(N)(=O)=O)cc1 (configuration not stated) | inactive | –
16 | O=C(c1ccc(C(F)(F)F)cc1)N1CCC(c2nc(-c3ccc(S(=O)(=O)N4CCCC4)cc3)no2)CC1 | active: 20.6 µM | –
17 | COc1ccc(-n2c(SCC(=O)N/N=C(\C)c3cccnc3)nc3ccccc3c2=O)cc1 | inactive | –
18 | COc1cccc(NC(=O)/C(C#N)=C\c2cn(Cc3ccc(C)cc3)c3ccccc23)c1 | active: 10.3 µM | –
19 | COCCn1c(N)c(C(=O)c2cccc(S(=O)(=O)N3CCCCCC3)c2)c(=O)[nH]c1=O | inconclusive [inhibitor, single point] | –
20 | CCOc1ccc(-n2c(SCC(=O)Nc3cc(OC)c([N+](=O)[O-])cc3C)nc3ccccc32)cc1 | inconclusive [inhibitor, partial curve, poor fit] | –
21 | CC(=O)Cn1cnc2c(cnn2-c2ccccc2)c1=O | inactive | –
22 | Cc1cccn2c(=O)c(C=O)c(Nc3ccc(S(N)(=O)=O)cc3)nc12 | inconclusive [inhibitor, partial curve] | –
23 | COCCNc1nc(Oc2cncc(Cl)c2)c2sccc2n1 | inconclusive [inhibitor, single point] | –
24 | Cc1ccc(C(=O)Nc2cccnc2)cc1S(=O)(=O)N1CCCCCC1 | inconclusive [inhibitor, single point] | –
25 | COc1ccccc1CNc1ccc(-c2nc(C)no2)cc1[N+](=O)[O-] | active: 7.31 µM | –
26 | COC(=O)c1c(-c2ccc(S(C)(=O)=O)cc2)sc2cc(OC)ccc12 | inconclusive [inhibitor, single point] | –

Row | Compound | Potency | activity change, negative = growth inhibition
27 | COc1ccc(C(CNC(=O)c2c(C)nn(Cc3ccccc3)c2Cl)N2CCOCC2)cc1 (configuration not stated) | inconclusive [inhibitor, single point] | –
28 | Cc1oc2ncn(CC(C)C)c(=O)c2c1C(=O)N1CCN(c2ccc(F)cc2)CC1 | inactive | –
29 | C=CCOc1ccc(/C=N/NC(C)=O)cc1OCC | inactive | –
30 | COC(=O)Cc1cc(OC)c(OC)cc1S(=O)(=O)N(C)C | inactive | –
31 | COc1ccc(S(=O)(=O)N(C)C)cc1NC(=O)CCNC(=O)c1ccco1 | inactive | –
32 | COc1ccc(-c2oc3ncn4nc(-c5ccccc5Br)nc4c3c2-c2ccc(OC)cc2)cc1 | inactive | –
33 | Cc1nc(SCc2ccc(OCCC(C)C)cc2)n[nH]1 | active: 14.6 µM | –
34 | O=C(Cn1c(=O)oc2ccccc21)N1CCOCC1 | inactive | –
35 | Cc1cc2nc(N=C(N)N)nc(C)c2cc1C | active: 14.6 µM | –
36 | COc1ccc(C(=O)NNC(=O)Cc2ccc([N+](=O)[O-])cc2)cc1 | inactive | –
37 | Cc1ccc(OCCOC(=O)c2cccc(S(=O)(=O)N3CC(C)OC(C)C3)c2)cc1 (configuration not stated) | inconclusive [inhibitor, single point] | –
38 | CCOC(=O)C(CC)Sc1cc(C)nc2ccc(OC)cc12 (configuration not stated) | inconclusive [inhibitor, single point] | –
39 | Cc1cc(C)cc(NC(=O)C(=O)NCCCN2CCCC2=O)c1 | inactive | –
40 | N#Cc1c(N2CCOCC2)nsc1-c1ccc(C(F)(F)F)cc1 | – | inconclusive: -32.1% [inhibitor]
41 | S=C(Nc1ccc(Cl)cc1)NC1CCCCC1 | inconclusive [inhibitor, single point] | –
42 | COCCCN(C(=O)c1cc(-c2ccco2)nc2ccccc12)c1c(N)n(Cc2ccccc2)c(=O)[nH]c1=O | inactive | –
43 | O=C(O)c1ccccc1NC(c1ccccc1)c1ccc2cccnc2c1O (configuration not stated) | active: 14.6 µM | –
44 | O=C(NCC(c1ccco1)N1CCc2ccccc2C1)C(=O)Nc1ccc(F)cc1F (configuration not stated) | active: 18.4 µM | –
45 | CCCOc1cccc(C(=O)N/N=C/c2ccoc2)c1 | inactive | –
46 | CC(=O)C(Sc1ccc2nnc(-c3ccc(C)cc3)n2n1)C(C)=O | active: 11.6 µM | –
47 | COc1ccccc1N1CCN(C(=O)CCN2C(=O)c3cccc4cccc(c34)C2=O)CC1 | inconclusive [inhibitor, partial curve] | –
48 | Cc1ccc2[nH]c3c(=O)n(CC(=O)N(C)c4cc(Cl)ccc4C)ncc3c2c1 | active: 18.4 µM | –
49 | O=C(c1ccc2c(c1)N(Cc1cccc(Cl)c1)C(=O)c1ccccc1S2(=O)=O)N1CCCCC1 | active: 16.4 µM | –
50 | Cc1ccc(C)c(NC(=O)Cn2cc(C(=O)C3CCCCC3)c3ccccc32)c1 | inconclusive [inhibitor, single point] | –
51 | CN(C)CCNC(=O)c1c(NC(=O)c2ccccc2)sc2c1CCCC2 | inconclusive [inhibitor, single point] | –
52 | Cc1cccc(OCC(=O)Nc2ccc(O)c(-c3nc4ccccc4o3)c2)c1 | inconclusive [inhibitor, partial curve, poor fit] | –

Row | Compound | Potency | activity change, negative = growth inhibition
53 | COc1cccc(OCCCn2cc(/C=C3/C(=N)N4C=C(C)SC4=NC3=O)c3ccccc32)c1 | active: 8.2 µM | –
54 | COc1ccccc1Nc1nc(-c2sc(NC(=O)c3ccco3)nc2C)cs1 | active: 16.4 µM | –
55 | O=C(Nc1ccc(NC(=O)c2ccc(Cl)cc2Cl)cc1)c1cccs1 | inactive | –
56 | CCN(CC(=O)Nc1c(F)cccc1F)C(=O)CCCN1C(=O)c2cccc3cccc(c23)C1=O | inconclusive [inhibitor, single point] | –
57 | COc1cccc2c1Oc1ncccc1N(C(=O)CCC(=O)NCc1ccc(N(C)C)cc1)C2 | – | inconclusive: -33.2% [inhibitor]
58 | OC(COCc1ccccc1F)CN1CCCCC1 (configuration not stated) | inactive | –
59 | O=C(CN1CCCN(Cc2ccc(Cl)cc2)S1(=O)=O)Nc1ccccc1F | inconclusive [inhibitor, single point] | –
60 | COc1cccc(NC(=O)c2oc3ccccc3c2NC(=O)c2ccc(C(F)(F)F)cc2)c1 | inconclusive [inhibitor, single point] | –
61 | CCOC(=O)c1cccc(NC(=O)C2CCC(CNc3c(N4CCOCC4)c(=O)c3=O)CC2)c1 (configuration not stated) | inactive | –
62 | O=C(Oc1cccc2c(O)cccc12)c1ccco1 | active: 20.6 µM | –
63 | CC(C)NC(=O)C1(C)CCN1Cc1ccc(C(F)(F)F)cc1 (configuration not stated) | inconclusive [inhibitor, single point] | –
64 | Cc1cc(=O)c2c(C)ccc(C)c2[nH]1 | inconclusive [inhibitor, partial curve] | –
65 | COc1ccc(C(=O)NCCc2c[nH]c3ccc(OC)cc23)cc1 | inactive | –
66 | Cc1oc(-c2cccc(Cl)c2)nc1CN1CCC(C(=O)NCCCN2CC(C)CC(C)C2)CC1 (configuration not stated) | inconclusive [inhibitor, single point] | –
67 | CCSc1nc2sc3c(c2c(=O)n1CC)CC(C)(C)OC3 | inconclusive [inhibitor, single point] | –
68 | CCCC(c1nnnn1C1CCCCC1)N1CCN(c2ncccn2)CC1 (configuration not stated) | inactive | –
69 | CN(C(=O)CSC1=NCCS1)c1ccccc1 | inactive | –
70 | COc1ccc(/C=N/NC(=O)c2cc(-c3ccc4c(c3)OCO4)n[nH]2)cc1OC | active: 18.4 µM | –
71 | O=C(N/C(=C/c1ccc([N+](=O)[O-])cc1)C(=O)N1CCCC1)c1ccccc1 | inactive | –
72 | CN(Cc1ccc([N+](=O)[O-])cc1)c1ccccc1 | inactive | –
73 | Cc1ccc(C(=O)Nc2ncc([N+](=O)[O-])s2)cc1 | active: 23.1 µM | –
74 | CC(=O)CC(=O)NC(=NC1CCCCC1)Nc1nc(C)cc(C)n1 | inconclusive [inhibitor, single point] | –
75 | CCCCCOP(=O)(OCCCCC)C1(NS(=O)(=O)c2ccccc2)C=CC(=O)c2ccccc21 (configuration not stated) | inconclusive [inhibitor, single point] | –
76 | CC(C)CC(=O)NC(=S)NCCc1ccccc1 | inconclusive [inhibitor, single point] | –
77 | Cc1cc(C)c(NC(=O)CN(C)CC(=O)Nc2cccc(S(=O)(=O)N(C)c3ccccc3)c2)c(C)c1 | inconclusive [inhibitor, single point] | –
